# Measured values: paper PMC4336329 (PLoS ONE, 2015)
# Screen size: about 310,000 compounds; about 14,000 (4.5%) showed an effect of 50% or more. The effect is printed as a negative number. Some of the results follow.
# Target: human ether-à-go-go-related gene (hERG) potassium channel (human, UniProt Q12809)
# Assay: primary screen, population patch clamp on CHO cells stably expressing hERG
# 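Also: peak tail current of the secondary pulse compared with the same well before compound.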
# Sequence of human ether-à-go-go-related gene (hERG) potassium channel (Q12809 whole entry, looked up): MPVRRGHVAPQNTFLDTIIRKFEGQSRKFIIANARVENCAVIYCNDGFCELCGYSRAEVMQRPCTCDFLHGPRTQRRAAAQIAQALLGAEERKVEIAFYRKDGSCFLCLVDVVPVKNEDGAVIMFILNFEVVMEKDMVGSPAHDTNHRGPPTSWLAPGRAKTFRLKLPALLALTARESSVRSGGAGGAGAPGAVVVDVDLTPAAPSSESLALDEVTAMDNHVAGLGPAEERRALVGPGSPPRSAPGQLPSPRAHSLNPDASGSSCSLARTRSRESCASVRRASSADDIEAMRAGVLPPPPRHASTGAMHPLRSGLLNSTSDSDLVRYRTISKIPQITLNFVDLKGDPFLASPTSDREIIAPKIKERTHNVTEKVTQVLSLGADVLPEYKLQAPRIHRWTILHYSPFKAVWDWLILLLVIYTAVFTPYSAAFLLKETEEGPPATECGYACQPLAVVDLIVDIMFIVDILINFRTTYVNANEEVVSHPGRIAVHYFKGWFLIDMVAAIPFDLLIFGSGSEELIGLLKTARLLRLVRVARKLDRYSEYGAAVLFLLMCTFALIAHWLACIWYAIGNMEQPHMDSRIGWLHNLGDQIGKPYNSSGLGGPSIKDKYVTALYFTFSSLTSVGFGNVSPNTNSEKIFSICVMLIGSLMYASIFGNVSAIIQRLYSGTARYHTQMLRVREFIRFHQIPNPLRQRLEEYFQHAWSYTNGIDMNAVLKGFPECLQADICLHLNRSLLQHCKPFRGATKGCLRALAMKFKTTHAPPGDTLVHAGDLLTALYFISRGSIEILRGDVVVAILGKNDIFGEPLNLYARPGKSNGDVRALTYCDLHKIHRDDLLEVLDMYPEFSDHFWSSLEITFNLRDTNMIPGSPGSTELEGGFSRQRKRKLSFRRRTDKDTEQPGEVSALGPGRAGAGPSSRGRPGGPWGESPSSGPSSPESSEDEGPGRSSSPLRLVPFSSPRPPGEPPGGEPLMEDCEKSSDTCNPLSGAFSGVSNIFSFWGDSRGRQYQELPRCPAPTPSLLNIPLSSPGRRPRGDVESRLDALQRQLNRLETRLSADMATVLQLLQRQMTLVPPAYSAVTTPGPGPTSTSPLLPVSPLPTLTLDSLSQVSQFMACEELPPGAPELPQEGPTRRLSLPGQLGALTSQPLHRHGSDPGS
row,SMILES,"hERG current change (%, negative = inhibition) at 10uM [%]"
1,Cc1ccc(C(C(=O)NC2CCCC2)N2CCc3ccccc32)cc1 (stereo not shown),8.39
2,COc1ccc(NC(=O)C(c2ccc(C)cc2)N(C)C(=O)CNC(C)=O)cc1 (stereo not shown),-1.01
3,Cc1ccc(-c2nn(-c3ccccc3)cc2C=C2C(=O)CC(C)(C)CC2=O)cc1,4.87
4,CCC(=NCCCN(CC)CC)c1c(O)n(C2CCCCC2)c(=O)[nH]c1=O,-52.9
5,COc1ccc(S(=O)(=O)NCCOc2ccccc2)cc1-n1cnnn1,-10.8
6,COc1ccc(NC2=CC(=O)CC(C)(C)C2)cc1OC,-4.44
7,COc1ccc(NC(=S)N(CCc2c(C)[nH]c3ccc(C)cc23)Cc2cccs2)cc1,12.3
8,O=C(CN1CCC(C(=O)O)CC1)Nc1ccccc1Oc1ccccc1,20.1
9,C=C(C)C(=O)Nc1cccc(C(C)=O)c1,5.08
10,O=C(CN(C(=O)CCC(=O)Nc1nccs1)c1ccccc1F)NCc1ccccc1,2.45
11,Cn1c(N2CCCC2)nc2c1c(=O)n(Cc1cccc(F)c1)c(=O)n2C,-19.6
12,CCCOc1cccc(-c2nnc(NC(=O)c3ccco3)s2)c1,-0.907
13,O=C(NCc1ccccc1)c1ncn[nH]1,-3.43
14,COCCNC(C(=O)Nc1cc(Cl)cc(Cl)c1)c1ccccc1 (stereo not shown),-16.4
15,CCc1c(C)c(C#N)c2nc3ccccc3n2c1N(C)C,-4.78
16,O=C(N/N=C/c1ccccn1)C12CC3CC(CC(C3)C1)C2,-0.609
17,CCn1c(SCC(=O)NCC2CCCO2)nnc1-c1ccc(S(=O)(=O)N2CCN(C)CC2)cc1 (stereo not shown),8.59
18,Cc1ccc(C(C(=O)NCc2ccco2)N(C(=O)CNC(=O)c2cccs2)c2c(C)cccc2C)cc1 (stereo not shown),6.76
19,CC1(C)COC(Nc2ccc(Cl)cc2)=N1,-35.8
20,CCCN1CCN(CCCNC(=O)c2cc3c(=O)n(C)c4ccccc4c3n2C)CC1,-14
21,CCC(=O)NC(=S)Nc1ccc(S(=O)(=O)NC(C)C)cc1,-10.9
22,Cc1nc2cc(C(=O)NCc3cccnc3)ccc2n1-c1ccc(F)cc1F,7.47
23,CC(=O)c1cccc(N2C(=NC(=O)COc3ccccc3)SC3CS(=O)(=O)CC32)c1 (stereo not shown),9.49
24,CC(=O)NC(Cc1ccc(F)cc1)C(=O)NC1CCN(C(=O)Nc2cccc(C)c2)CC1 (stereo not shown),6.17
25,C/C(=N\NC(=O)COc1ccccc1-c1ccccc1)c1ccc(O)cc1O,24.7
